# According to PubChem BioAssay AID686978 (National Center for Advancing Translational Sciences (NCATS), 2013):
# Where “and” joins values, the source holds several entries; their conditions need not be identical. Identical values can stand only once. The campaign covered roughly 420,000 compounds. About 64,000 (15%) were called active. Inconclusive means that the source gave no clear call. Such entries were picked first, then a sample of the others. The call rests on the fitted dose curve; in most records, active means well fitted inhibition curve with a large enough effect; inconclusive means small, poorly fitted or top-dose-only effect; inactive means flat fitted curve, though single readings scatter. Potencies of inconclusive entries are left out as doubtful fits.
# Test: qHTS for Inhibitors of human tyrosyl-DNA phosphodiesterase 1 (TDP1): qHTS in cells in absence of CPT; further: nearly all actives have a fitted effect of over 55% in size
# Settings: DT40 Tdp1-/- hTDP1 cells, no CPT, ATP luminescence, 48 h; activity change, negative = growth inhibition: at 46.2 µM (top of the series)
# In short: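 Compound effects on proliferation are scored in DT40 Tdp1-/-;hTDP1 cells in the absence of CPT. ATP levels (CellTiter-Glo luminescence) are recorded after a ≥48 hr, 37 °C incubation.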
# On the % scale 0 is the no-effect control and ±100 the full control effect; potency means the concentration at half of the fitted maximal effect; tags describe the fitted curve by direction and shape.
SMILES,Potency,"activity change, negative = growth inhibition"
O=C(NNC(=S)Nc1ccccc1)c1ccc(O)cc1,inactive,
CCCCN=C1CC(C)(C)CC(=O)/C1=C(/O)CCCN1C(=O)c2ccccc2C1=O,"inconclusive [inhibitor, partial curve]",
COc1ccc2c(c1)c(C(=O)CN1CCC(C(N)=O)CC1)c(C)n2C,inactive,
c1ccc2c(c1)SCc1nnc(-c3ccncc3)n1-2,inactive,
O=S(=O)(Nc1ccc(-c2ccc(N3CCCC3)nn2)cc1)c1ccc(C(F)(F)F)cc1,"inconclusive [inhibitor, single point]",
Nc1nc(COC(=O)c2ccco2)nc(Nc2ccccc2)n1,inactive,
CC(=O)Nc1cccc(NC(=O)c2ccc3c(c2)CCN3S(C)(=O)=O)c1,,inconclusive: -31.2% [inhibitor]
O=C(CSc1nnc(-c2ccc(F)cc2)c2ccccc12)Nc1ccccc1Cl,inactive,
CCOc1ncccc1C(=O)Nc1cccc(-c2nnc3n2CCCCC3)c1,"inconclusive [inhibitor, partial curve, poor fit]",
CCn1c(=O)c(C(=O)NNC(=O)c2cccc(Cl)c2)c(O)c2ccccc21,"inconclusive [inhibitor, single point]",
Cc1c(OCC(=O)NCc2ccccn2)ccc2c3c(c(=O)oc12)CCCC3,"inconclusive [inhibitor, single point]",
Cc1ccc(-n2ncc3c(N(C)C)ncnc32)cc1Cl,"inconclusive [inhibitor, single point]",
Cc1ccc2c(C)c(C(=O)NCCN3CCCC(O)C3)oc2c1C (configuration not stated),"inconclusive [inhibitor, partial curve, poor fit]",
CCCc1nc2ccc(NC(C)=O)cc2c(=O)n1Cc1ccccc1Cl,"inconclusive [inhibitor, single point]",
Cc1ccc(Cn2c(C3CCCN3c3nc(-c4ccc(F)cc4)cs3)nc3cc(C(F)(F)F)ccc32)cc1 (configuration not stated),active: 20.6 µM,
Cn1c(CNC(=O)c2ccccc2F)nnc1SCc1ccc(Cl)cc1,inactive,
O=C(NCC1CCCCC1)c1cccc(-c2ccc(O)cc2)c1,active: 20.6 µM,
CCc1ccc(NC(=O)CCn2c(=O)oc3ccccc32)cc1,"inconclusive [inhibitor, single point]",
COC(=O)C1C(=O)NCC1c1ccc(C)cc1 (configuration not stated),inactive,
CC1CN(c2nc3c(c(=O)n(C)c(=O)n3C)n2Cc2c(Cl)cccc2Cl)CC(C)O1 (configuration not stated),"inconclusive [inhibitor, single point]",
Cc1cccc(-c2nc(CCNC(=O)c3ccc(Br)o3)cs2)c1,"inconclusive [inhibitor, single point]",
CCOC(=O)C1=C(C)N(C[C@@H]2CC[C@@H](Cc3ccc(-c4ccccc4)cc3)O2)C(=O)NC1c1ccc(C(F)(F)F)cc1 (some centres not stated),"inconclusive [inhibitor, single point]",
O=C(O)c1cn(Cc2ccccc2Cl)c2ccc(S(=O)(=O)N3CCOCC3)cc2c1=O,"inconclusive [inhibitor, single point]",
O=C(NCCCN1CCN(c2ccc(F)cc2)CC1)c1cc2c(Cl)nc3ccccc3c2s1,active: 4.61 µM,

SMILES,Potency,"activity change, negative = growth inhibition"
Cc1cccc2sc(NNC(=O)c3cc(-c4cccs4)nc4ccccc34)nc12,active: 4.11 µM,
Cc1cc(=O)n(Cc2ccc(F)cc2Cl)c2c1c(C)nn2C,"inconclusive [inhibitor, single point]",
COc1ccc(S(=O)(=O)Nc2ccc3c(c2)OCCO3)cc1Cl,"inconclusive [inhibitor, partial curve]",
CCc1noc(C)c1C(=O)Nc1ccccc1N1CCOCC1,"inconclusive [inhibitor, single point]",
CCCc1cc(-c2n[nH]c(=S)n2CC)c2ccccc2n1,"inconclusive [inhibitor, partial curve, poor fit]",
Cn1c(SCC(=O)Nc2ccc(Cl)cc2F)nnc1-c1ccco1,inactive,
CCC(Oc1ccccc1)C(=O)Nc1ccccc1N1CCCC1 (configuration not stated),"inconclusive [inhibitor, full curve]",
CNc1ccc(/C=C/c2ccnc3ccccc23)cc1,active: 15.8 µM,
CCCC/C=C1\CCc2c([nH]c3ccccc23)C1=O,inactive,
OCC[n+]1ccc(/C=C/c2c[nH]c3ccccc23)cc1,active: 5.8 µM,
COc1ccccc1NC(=O)c1ccc(S(=O)(=O)N2CCC(C)CC2)cc1,inactive,
CC1Cc2ccccc2N1S(=O)(=O)c1cccc(C(=O)N2CCN(c3ncccn3)CC2)c1 (configuration not stated),"inconclusive [inhibitor, single point]",
O=C(CN(C(=O)c1csnn1)c1cccc2c1CCCC2)NCc1ccc(F)cc1,"inconclusive [inhibitor, single point]",
Cc1nnc(NC(=O)C2CC(=O)N(c3ccc4c(c3)OCCO4)C2)s1 (configuration not stated),inactive,
CC1(C)CCC(=O)N2CC[C@H]3C[C@H](OC(=O)Nc4ccc5c(c4)OCO5)C[C@@H]1[C@H]32,"inconclusive [inhibitor, single point]",
CC(=O)c1sc(NC(=O)c2c(-c3ccccc3)c(-c3ccccc3)nn(C)c2=O)nc1C,active: 0.517 µM,
O=C(Nc1nnc(-c2ccccc2)s1)c1ccc(F)cc1,inactive,
O=C(Nc1ccncc1)c1cccc(F)c1,"inconclusive [inhibitor, single point]",
CCOC(=O)N1CCN(C(=O)C2CCCN(S(=O)(=O)c3ccc(C)cc3)C2)CC1 (configuration not stated),active: 16.4 µM,
CCOc1ccc(NC(=O)c2c(NCc3cccnc3)sc3c2CCC(C)C3)cc1 (configuration not stated),active: 14.6 µM,
COc1ccc(NS(=O)(=O)c2cc(C)ccc2C)cc1,active: 16.4 µM,
C[C@H]1CCC(=O)N([C@H](CSc2ccc(Br)cc2)Cc2ccccc2)CC1,active: 10 µM and active: 29.1 µM,
CCOC(=O)[C@@H]1[C@H]2COc3ccccc3[C@@H]2N2C(=O)N(c3ccc(OC)cc3)C(=O)[C@@]12C,"inconclusive [inhibitor, single point]",
